Experimental data published in PubChem BioAssay AID1671193 (National Center for Advancing Translational Sciences (NCATS), 2021).
“And” between values parts separate entries of the source, which are not always exact repeats. Equal entries are not always repeated. The campaign covered roughly 150,000 compounds. About 180 (0.12%) were called active. The inconclusive results got no clear call from the source; some entries with a clear call stand among them for comparison. Calls come from the whole dose curve; as a rule, active = well fitted cell-killing curve with a large enough effect; inconclusive = small, poorly fitted or top-dose-only effect, or effect the other way; inactive = flat fitted curve, though single readings scatter. Potencies beside an inconclusive call are fits to weak or partial responses and may not hold up.

experiment: GF-AFC viability counterscreen for inhibitors of alpha-synuclein gene (SNCA) expression; details: HEK-293-SNCA-luc viability, GF-AFC fluorescence, 24 h; activity change, negative = cytotoxicity: at 57.1 µM (top of the series) unless noted; note: nearly all actives have a fitted effect of over 30% in size;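 for activity change, negative = cytotoxicity: 0% = DMSO-treated cells and -100% = medium-only wells without cells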
Procedure, shortened: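 HEK-293-SNCA-luc cells (1500/well) plated 24 h, then exposed 24 h to a dilution series; GF-AFC added 30 min at 37C, fluorescence 405/540 nm; normalised to medium-only and DMSO wells, Hill fit.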
Potency is the fitted concentration of half-maximal effect; tags give direction and shape of the fitted curve.

Structure (SMILES)	Potency	activity change, negative = cytotoxicity
CC(C)C[C@H](NC(=O)[C@H](CCc1ccccc1)NC(=O)CN1CCOCC1)C(=O)N[C@@H](Cc1ccccc1)C(=O)N[C@@H](CC(C)C)C(=O)[C@@]1(C)CO1	inconclusive: 0.0108 µM [cytotoxic, full curve, poor fit]	
Cc1ccc(C)c(OCCSc2nc3ccccc3n2CC(=O)N2CCOCC2)c1	inconclusive: 8.91 µM [cytotoxic, partial curve]	
Cc1ccc(CN2CCCn3nc(C(=O)NCCN(C)C)cc3C2=O)cc1	inconclusive: 2.24 µM [cytotoxic, single point]	
Cc1noc(C)c1S(=O)(=O)N1CCC(C(=O)N2CCC(c3ccccc3)CC2)CC1		inactive: 18.8%
CCOc1ccccc1C(=O)Nc1ccc(-n2nncc2-c2ccccc2)cc1	inconclusive: 25.1 µM [cytotoxic, single point]	
O=C(c1ccccn1)N1CCCC2(C1)Nc1cccnc1NC2=NC1CCCC1 (configuration not stated)		inactive: -13.9%
COc1ccc(-c2nc3cnc(Nc4ccccc4)nc3n(Cc3cccs3)c2=O)cc1	inconclusive: 1.26 µM [rising, full curve, poor fit]	
COc1ccc(Nc2nnc(-c3ccc(C)c(S(=O)(=O)NCc4nc5ccccc5[nH]4)c3)c3ccccc23)cc1	inconclusive: 25.1 µM [cytotoxic, partial curve, poor fit]	
COc1ccc(-c2cc(C(=O)NC3CCNCC3)c3c(C)nn(-c4ccccc4)c3n2)cc1	inconclusive: 25.1 µM [cytotoxic, single point]	
O=C(Nc1cccc(-c2ccc(N3CCOCC3)nn2)c1)Nc1cc(Cl)ccc1Cl		inactive: -1.7%
CNC(=O)[C@H]1C[C@H](Oc2cccnc2)CN1S(=O)(=O)c1ccccc1		inactive: -0.59%
CN(C)c1ncc2nc(-c3ccc(F)cc3)c(=O)n(C)c2n1	inconclusive: 8.91 µM [rising, partial curve, poor fit]	
COc1ccc(S(=O)(=O)NCCc2sc3nc(-c4ccc(C)cc4)nn3c2C)cc1C	inconclusive: 10 µM [cytotoxic, partial curve, poor fit]	
COc1ccc(C(=O)N2CCC3(C2)C(=O)N(CCc2ccccc2)c2ccccc23)cc1 (configuration not stated)	inconclusive: 6.31 µM [cytotoxic, full curve, poor fit] and inconclusive: 35.5 µM [cytotoxic, partial curve, poor fit]	
CS(=O)(=O)N1CCc2c(-c3cnc(N)nc3)nc(N3CCOCC3)nc21	inconclusive: 2.38 µM [cytotoxic, full curve, poor fit]	
CN(C)CC1(O)CCC2(CCN(C(=O)c3[nH]nc4c3COc3ccccc3-4)CC2)CC1		inactive: -15%
O=C(NCc1cccnc1)C1CCCCN1Cc1ccc(-c2ccsc2)cc1 (configuration not stated)		inactive: 20.5%
CC(=O)[C@]1(O)Cc2c(O)c3c(c(O)c2[C@@H](O[C@H]2C[C@H](N)[C@H](O)[C@H](C)O2)C1)C(=O)c1ccccc1C3=O	inconclusive: 5.01 µM [cytotoxic, full curve, poor fit]	
CCOc1ccccc1CNC(=O)CCC(=O)N1CCSc2ccccc21	inconclusive: 1.78 µM [rising, single point]	
COCCNC(=O)CCCN1C(=O)COc2ccc(C(=O)COc3ccc(C)cc3C)cc21	inconclusive: 20 µM [cytotoxic, partial curve, poor fit]	
Cc1ccc(C(=O)NC2CCN(Cc3cccc(-c4ccc(F)c(F)c4)c3)CC2)cc1		inactive: -11.4%

Structure (SMILES)	Potency	activity change, negative = cytotoxicity
O=C(NCC(F)F)c1cc(Br)cn2ccnc12	inconclusive: 31.6 µM [rising, partial curve, poor fit]	
CCNc1ncc2nc(-c3ccccc3)c(=O)n(C3CC3)c2n1	inconclusive: 25.1 µM [rising, partial curve, poor fit]	
COCCN1C(=O)CC[C@]2(C(=O)NCc3cccc(Cl)c3)CCCC[C@@H]12	inconclusive: 3.55 µM [cytotoxic, single point]	
CC1=C[C@@H](CN2CCN(CCO)CC2)[C@H](C(C)C)C[C@H]1Cc1nnc(-c2ccc([N+](=O)[O-])cc2)o1	inconclusive: 17.8 µM [cytotoxic, partial curve]	
CC(C(=O)N1CCOCCNC(=O)CC1)c1ccccc1 (configuration not stated)	inconclusive: 1.26 µM [rising, full curve]	
CCn1ccnc1CN1CCCC(CO)(Cc2cccc(Cl)c2)C1 (configuration not stated)		inactive: -3.83%
CCCCN(C)CCNC(=O)C1CCN(c2nc3ccc(CC)cc3s2)CC1	inconclusive: 22.4 µM [cytotoxic, partial curve, poor fit]	
COCC1CN(S(=O)(=O)c2ccc3c(c2)CCCC3)CC12CCNCC2 (configuration not stated)	inconclusive: 17.8 µM [cytotoxic, single point]	
CCC(CC)n1c(=O)n(Cc2cc(C(C)C)no2)c2cc(C(=O)O)cnc21		inactive: 6.8%
NC(=O)Cn1ccc2cc(OCC3CCN(C(=O)Oc4ccccc4Cl)CC3)cnc21		inactive: 0.457%
O=C(NCCc1ccccn1)C1c2ccccc2C(=O)N(C2CCCCC2)C12CCCCC2 (configuration not stated)		inactive: -17.1%
COc1ccc(-c2nc(-c3ccccc3)nc3c2CN(C(=O)Cc2cccc(Cl)c2)CC3)cc1	inconclusive: 14.1 µM [cytotoxic, partial curve, poor fit]	
COc1ccc(CC(=O)NCc2cc(C)cc3c(C)c(C)[nH]c23)c(OC)c1	inconclusive: 7.94 µM [cytotoxic, full curve, poor fit]	
COc1ccc(-c2cnc3[nH]cc(CC(=O)Nc4ccc(C(F)(F)F)cc4)c3c2)cc1		inactive: -7.03% [at 87.6 µM]
CN1CC[C@H](c2nc3ccc(C(F)(F)F)cc3[nH]2)C1		inactive: -1.69% [at 87.6 µM]
Cc1nc2cc(-c3cccc(F)c3)nn2c(C)c1CCC(=O)NC1CCCCC1		inactive: 7.05%
Cc1ccccc1OCc1nc(C2CN(C(=O)c3nccc4ccccc34)C2)no1	inconclusive: 17.8 µM [cytotoxic, partial curve, poor fit]	
COC(=O)c1cccc(NC(=S)N[C@@H]2C=C[C@@H](c3c(C)nn(-c4ccccc4[N+](=O)[O-])c3C)C2)c1	inconclusive: 31.6 µM [cytotoxic, partial curve, poor fit]	
CN(Cc1ccc(F)cc1)Cc1ccccc1OCC(O)CN1CCCCC1 (configuration not stated)	inconclusive: 25.1 µM [cytotoxic, partial curve, poor fit]	
COc1ccccc1-c1cccc(CN2CCC(NC(=O)NC3CCCC3)CC2)c1	inconclusive: 7.08 µM [cytotoxic, single point]	
CCCOc1ccn2c(C(C)=O)cc(-c3ccccc3S(C)(=O)=O)c2c1	inconclusive: 5.32 µM [rising, single point]	

Structure (SMILES)	Potency	activity change, negative = cytotoxicity
O=C1CCSC2(C(=O)N(Cc3ccc(F)cc3)c3ccccc32)N1c1ccccc1 (configuration not stated)	inconclusive: 25.1 µM [cytotoxic, single point]	
CNS(=O)(=O)c1ccccc1Nc1nc(Nc2ccc(N3CCN(C)CC3)cc2OC)ncc1Br	inconclusive: 3.77 µM [cytotoxic, partial curve, poor fit]	
Cc1cc(C)c(CNC(=O)c2nc(-c3ccccc3C)cc3c2ccn3C(C)C)c(=O)[nH]1	inconclusive: 31.6 µM [cytotoxic, single point]	
CO[C@H]1CN(C2CCN(C(=O)c3noc(C)c3Cn3cccn3)CC2)[C@H]1c1cccnc1	inconclusive: 8.91 µM [cytotoxic, single point]	
Cc1ccc(C)c(N2CCN(c3ncnc4onc(C)c34)CC2)c1	inconclusive: 1 µM [cytotoxic, partial curve, poor fit]	
O=C1c2ccccc2C(=O)c2c1ccc(O)c2O		inactive: -1.81% [at 23.9 µM]
COC(=O)c1cc(OC)c(O[C@@H]2O[C@@H](C)[C@H](O)[C@@H](O)[C@H]2O)c(OC)c1		inactive: -0.858%
Nc1nc(=S)c2[nH]cnc2[nH]1	inconclusive: 17.1 µM [cytotoxic, partial curve, poor fit]	
COCCNC(=O)CSc1nc(-c2ccc(F)cc2)[nH]c1-c1ccc(Cl)cc1	inconclusive: 31.6 µM [cytotoxic, single point]	
O=C(NCCN1CCCCC1)c1cc2cn(C3CCCC3)cc2s1		inactive: -10.3%
Cc1ccc(-c2nc(CNC(=O)C(C)CN)[nH]c2-c2ccccn2)cc1 (configuration not stated)		inactive: 1.11%
COc1cc(O)c2c(c1)C1OC1C[C@H](O)[C@H](O)C(=O)/C=C\C[C@H](C)OC2=O (some centres not stated)	active: 11.9 µM	
CC(=O)N1c2ccc(S(=O)(=O)NCC3CCC(C(=O)Nc4cccc(C)c4)CC3)cc2CC1C (configuration not stated)	inconclusive: 20 µM [cytotoxic, partial curve, poor fit]	
CCc1ccccc1S(=O)(=O)N1CCC(N(C(=O)COC)C2CCOCC2)CC1	inconclusive: 3.16 µM [rising, single point]	
C=C1C(=O)O[C@@H]2C/C(C)=C\C(=O)/C=C(\C)[C@@H](OC(=O)/C(C)=C\C)[C@H](O)[C@@H]12	active: 14.7 µM	
COc1cc(-c2nc(-c3c(C)noc3C)cc3[nH]c(C)cc23)ccn1		inactive: -15.6% [at 87.6 µM]
Cn1cc(CC(=O)N2CCCc3ncc(C(=O)Nc4cccc(C(F)(F)F)c4)cc32)c2ccccc21		inactive: -21.4%
CC1(CCCCN2CCOCC2)COc2ccc(C(=O)NCc3ccco3)cc2N1 (configuration not stated)		inactive: 5.82% [at 87.6 µM]
CN(C(=O)CSc1nc2ccc(NC(=O)c3cccs3)cc2s1)c1ccccc1	inconclusive: 39.8 µM [cytotoxic, single point]	
Cc1ccc2nc(/C(C#N)=C/c3ccc(-c4ccc(C(=O)OC(C)C)cc4)o3)[nH]c2c1	inconclusive: 3.16 µM [rising, partial curve, poor fit]	
